In the supplement of paper PMC8512760:
The list shows a part of the results. Many values rest on one well or one pass, so single values are uncertain.

Test system: HCC-1187
Test: cell viability relative to vehicle (% of vehicle); basal-like triple-negative breast cancer lines; higher = less cytotoxic
Settings: 10 µM; 72 h
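Further: stably firefly luciferase-GFP labeled cells in 96-well plates, viability read as luciferase photon flux after d-luciferin addition, treated wells normalized to vehicle wells, single-dose high-throughput screen.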

SMILES	cell viability
CC12CCC(O)CC1=CCC1C2CCC2(C)C(c3cccnc3)=CCC12 (centres undefined) [Abiraterone]	103
CC(C)NCC(O)COc1ccc(COCCOC(C)C)cc1.O=C(O)C=CC(=O)O (centres undefined) [Bisoprolol fumarate]	102
CN(C)C(=O)c1cc2cnc(Nc3ccc(N4CCNCC4)cn3)nc2n1C1CCCC1	113
Cc1cccc(CN2CCN(C(c3ccccc3)c3ccc(Cl)cc3)CC2)c1.Cl.Cl (centres undefined) [Meclizine 2HCl]	97.1
Cl.Cl.Clc1ccc(Nc2nnc(Cc3ccncc3)c3ccccc23)cc1 [Vatalanib (PTK787) 2HCl]	91.5
CNNCc1ccc(C(=O)NC(C)C)cc1.Cl [Procarbazine HCl]	85.6
CC1OC(n2cc(F)c(=O)[nH]c2=O)C(O)C1O (centres undefined) [Doxifluridine]	78.9
CC1(C)SC2C(NC(=O)C(NC(=O)N3CCN(S(C)(=O)=O)C3=O)c3ccccc3)C(=O)N2C1C(=O)O.[Na] (centres undefined) [Mezlocillin Sodium]	83.6
Cc1ccc(C(=O)C(C)CN2CCCCC2)cc1.Cl (centres undefined) [Tolperisone HCl]	92.9
CCOC(=O)C1OC1C(=O)NC(CC(C)C)C(=O)NCCC(C)C (centres undefined)	85
CN1CCN(c2ccc(C(=O)/N=c3\[nH][nH]c4ccc(Cc5cc(F)cc(F)c5)cc34)c(NC3CCOCC3)c2)CC1 [Entrectinib]	26.9
CC(C)(Oc1ccc(C2CC2(Cl)Cl)cc1)C(=O)O (centres undefined) [Ciprofibrate]	103
CN1CCC(=C2c3ccccc3CCc3sccc32)CC1.O=C(O)CC(O)C(=O)O [Pizotifen Malate]	113
COc1ccnc(C[S+]([O-])c2nc3cc(OC(F)F)ccc3[nH]2)c1OC (centres undefined) [Pantoprazole]	120
CC(S)C(=O)NCC(=O)O (centres undefined) [Tiopronin (Thiola)]	106
CN1CCN(c2c(F)cc3c(=O)c(C(=O)O)cn4c3c2OCN4C)CC1 [Marbofloxacin]	117
CS(=O)(=O)c1ccc(C(O)C(CO)NC(=O)C(Cl)Cl)cc1 (centres undefined) [Thiamphenicol]	96.4
Cc1ncc(C[n+]2csc(CCO)c2C)c(N)n1.Cl.[Cl-] [Thiamine HCl (Vitamin B1)]	87
Nc1nc(=O)c2c(CCc3ccc(C(=O)NC(CCC(=O)O)C(=O)O)cc3)c[nH]c2[nH]1.O.[Na+] (centres undefined) [Pemetrexed disodium hemipenta hydrate]	88.4
CCCCC1C(=O)N(c2ccccc2)N(c2ccccc2)C1=O [Phenylbutazone]	97.1

SMILES	cell viability
CO[C@H]1O[C@@H]2OC3(C)CC[C@H]4[C@H](C)CC[C@@H]([C@H]1C)[C@@]24OO3 [Artemether]	73.9
CC(C)(C)NC(=O)NC(C(=O)N1CC2C(C1C(=O)NC(CC1CCC1)C(=O)C(N)=O)C2(C)C)C(C)(C)C (centres undefined) [Boceprevir]	80.4
CC(CCC(=O)O)C1CCC2C3CCC4CC(O)CCC4(C)C3CCC12C (centres undefined) [Lithocholic Acid]	88.4
CC(C(=O)[O-])c1cccc(Oc2ccccc2)c1.CC(C(=O)[O-])c1cccc(Oc2ccccc2)c1.[Ca+2] (centres undefined) [Fenoprofen Calcium]	121
Cc1c(O)cccc1C(=O)NC(CSc1ccccc1)C(O)CN1CC2CCCCC2CC1C(=O)NC(C)(C)C (centres undefined) [Nelfinavir]	75.6
CCC(=C(c1ccccc1)c1ccc(OCCN(C)C)cc1)c1ccccc1.O=C(O)CC(O)(CC(=O)O)C(=O)O [Tamoxifen Citrate]	86.7
CN1CCN(CCCN2c3ccccc3Sc3ccc(Cl)cc32)CC1 [Prochlorperazine]	104
CN(C)CC(c1ccc(O)cc1)C1(O)CCCCC1 (centres undefined) [Desvenlafaxine]	99.6
CCCCOc1cc(C(=O)OCCN(CC)CC)ccc1N.Cl [Oxybuprocaine HCl]	115
CS(=O)(=O)Nc1ccc([N+](=O)[O-])cc1Oc1ccccc1 [Nimesulide]	102
Cc1ncc(CO)c(CO)c1O.Cl [Pyridoxine HCl]	81.2
CC(=O)O.C[C@H](N)C(=O)O.NCCCC[C@H](N)C(=O)O.N[C@@H](CCC(=O)O)C(=O)O.N[C@@H](Cc1ccc(O)cc1)C(=O)O [glatiramer acetate]	97.5
CC(C)NCC(O)c1ccc(O)c(O)c1.Cl (centres undefined) [Isoprenaline HCl]	101
COC(=O)Nc1nc2ccc(C(=O)c3ccc(F)cc3)cc2[nH]1 [Flubendazole]	33
CC1CC2C3CCC4=CC(=O)C=CC4(C)C3(Cl)C(O)CC2(C)C1(OC(=O)c1ccco1)C(=O)CCl (centres undefined) [Mometasone furoate]	106
COc1ccc(C=Cc2cc(OC)c(OC)c(OC)c2)cc1OP(=O)([O-])[O-].[Na+].[Na+] [Fosbretabulin (Combretastatin A4 Phosphate (CA4P)) Disodium]	44.8
Nc1nc(NC2CC2)c2ncn(C3C=CC(CO)C3)c2n1.O=S(=O)(O)O (centres undefined) [Abacavir sulfate]	75.9
CCC1=CC2CN(C1)Cc1c([nH]c3ccccc13)C(C(=O)OC)(c1cc3c(cc1OC)N(C)C1C(O)(C(=O)OC)C(OC(C)=O)C4(CC)C=CCN5CCC31C54)C2.O=C(O)C(O)C(O)C(=O)O.O=C(O)C(O)C(O)C(=O)O (centres undefined) [Vinorelbine ditartrate]	52.4
O=C1NC([O-])=NC1(c1ccccc1)c1ccccc1.[Na+] [Phenytoin sodium]	97.8
